Results as given in the supplement of paper PMC4166925.
± gives the standard deviation of the averaged measurements. The full ranking holds about 33,000 sequences; the median of “E-score (dimensionless, -0.5 to 0.5)” is about -0.046, and the highest 2% start at about 0.36. Some of the results follow.

Test system: T1, SpTbr T-box DNA-binding domain (GST fusion)
T1 sequence: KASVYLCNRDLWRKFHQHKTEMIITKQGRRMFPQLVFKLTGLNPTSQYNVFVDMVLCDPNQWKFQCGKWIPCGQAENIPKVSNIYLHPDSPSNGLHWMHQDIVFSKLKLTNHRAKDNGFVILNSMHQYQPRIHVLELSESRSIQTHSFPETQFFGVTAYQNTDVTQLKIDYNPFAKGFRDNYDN
Assay: PBM E-score of 8-mer (E-score (dimensionless, -0.5 to 0.5)); Tbr is Tbrain of the sea star Patiria miniata (Pm) or the sea urchin Strongylocentrotus purpuratus (Sp); higher = stronger binding preference; most listed sequences are background and not binding sites
Conditions: the construct has about 5 more residues each side
How it was run: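 Universal Agilent oligonucleotide arrays, made double-stranded by primer extension, were incubated with 200 nM GST-fused Tbr T-box DNA-binding domain in PBS (pH 7.5). The protein was expressed in BL21 E. coli at 20 °C and purified by glutathione affinity chromatography. After scanning and quantification, the Universal PBM Analysis Suite assigned an enrichment E-score to each ungapped 8-mer, averaged over duplicate arrays.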

Sequence	PBM E-score of 8-mer
GCCCGCTA	-0.0812 ± 0.023
CGAATTAC	-0.0983 ± 0.017
TGATGACA	0.251 ± 0.04
TCCCGCGA	0.226 ± 0.02
ACTTATGC	-0.123 ± 0.0083
GAGATATC	0.0386 ± 0.095
CGCCGTAG	-0.145 ± 0.11
GGCGAACC	-0.141 ± 0.05
CAAAACTC	-0.0226 ± 0.13
ACCAATAC	0.0857 ± 0.031
TTAACAAA	0.119 ± 0.037
CGATACAA	-0.145 ± 0.056
AGAGAGCA	-0.0528 ± 0.029
CACAAATA	0.034 ± 0.022
GCGTCGCA	0.112 ± 0.036
AGGGTGCG	0.402 ± 0.01
CGGGTCCA	-0.0177 ± 0.044
CCGCGCGG	0.0794 ± 0.1
ACAATACA	0.0346 ± 0.048
CAGGCGCC	0.175 ± 0.083
GCCATAAC	0.126 ± 0.0033
AAGCGCAC	0.0297 ± 0.0035

Sequence	PBM E-score of 8-mer
CTTGATAC	-0.0707 ± 0.059
GAGCACTC	-0.171 ± 0.033
GGACACCA	0.183 ± 0.045
ATGTTAAG	-0.062 ± 0.022
ACGAGCTA	-0.118 ± 0.015
GAAATCCC	-0.0294 ± 0.026
GGTCTGGA	-0.185 ± 0.063
AGGATTAC	-0.242 ± 0.015
ATCGCCAC	0.302 ± 0.053
CTTCCACA	0.227 ± 0.045
CCTAAAAC	0.0389 ± 0.026
TACTCATA	-0.0019 ± 0.00044
AACGAAAC	0.042 ± 0.0061
GGCGTCAC	0.373 ± 0.024
GGGCCCTA	-0.328 ± 0.021
AAACTTTG	-0.0173 ± 0.04
AACATCTC	0.17 ± 0.0085
GCTCCAAC	0.0384 ± 0.031
GTAACCTA	-0.123 ± 0.064
ACGATCAG	-0.129 ± 0.071
CTGAGCCA	-0.0691 ± 0.043
TGAAAGCA	0.111 ± 0.022

Sequence	PBM E-score of 8-mer
CAACCAGA	-0.0623 ± 0.07
AGCCTTGG	-0.153 ± 0.048
CCCAGAAG	0.00203 ± 0.0082
AGAATACT	-0.257 ± 0.094
AACTAGTA	-0.163 ± 0.016
AAGTGTCC	0.2466 ± 0.0019
CAACTAAA	0.0545 ± 0.0022
AACGAGTT	0.0148 ± 0.089
CCCATTGA	-0.0576 ± 0.015
GCCATCAC	0.198 ± 0.043
GCACTCTA	-0.026 ± 0.058
ATGTATGA	-0.1421 ± 0.00039
CGAGGCTA	-0.0781 ± 0.0044
CAAGTAAC	0.113 ± 0.019
GCAAACAA	0.046 ± 0.041
AGTCAAAC	-0.0576 ± 0.022
CTCGTTAA	0.123 ± 0.012
AATTCGGA	-0.273 ± 0.004
CAACGTTG	0.217 ± 0.051
GGCGTCCA	-0.0614 ± 0.0052
ATCTTTGC	0.06 ± 0.029
ACGTTTAA	-0.185 ± 0.007

Sequence	PBM E-score of 8-mer
ACATAGGG	-0.161 ± 0.012
GCTTTACA	0.0266 ± 0.031
CGGATCAG	-0.0346 ± 0.017
GATAAACA	0.0173 ± 0.097
ACGGGTAT	0.000385 ± 0.022
CAACATCG	0.0455 ± 0.0082
GGCAACTA	0.0212 ± 0.011
ACCACTAG	0.0638 ± 0.071
ACCGTCAT	0.0989 ± 0.0085
CGGCCCAG	-0.2798 ± 0.0014
CCTCGACG	0.0784 ± 0.066
CAGGGGTA	-0.191 ± 0.06
CGCTAGCG	0.107 ± 0.049
AACCTTGT	-0.131 ± 0.051
TCTTCCCA	0.169 ± 0.0028
AAGATGCT	-0.285 ± 0.019
GCGACAGC	0.262 ± 0.042
AAGAATGA	-0.122 ± 0.0021
CCCGTCCG	-0.112 ± 0.003
CCAATCCA	0.0308 ± 0.037
ACTCCAGC	-0.242 ± 0.054
GACTCCCC	-0.247 ± 0.048

Sequence	PBM E-score of 8-mer
GCGGCGTA	-0.126 ± 0.094
AACCCCAC	-0.0189 ± 0.1
CAAGCACG	-0.0364 ± 0.021
AACCCCAT	0.0327 ± 0.046
ACATGGCA	-0.0601 ± 0.028
ACATTGTG	0.107 ± 0.067
ACGCGAAG	0.185 ± 0.027
AAACACGG	-0.0457 ± 0.027
AGAGGGGG	-0.179 ± 0.0039
AAACTACC	-0.224 ± 0.082
ATTAATTA	-0.22 ± 0.019
AGGAGTGA	0.212 ± 0.003
ACGTGGCC	-0.105 ± 0.026
CGTTTCGA	0.00159 ± 0.013
CAACCCGA	0.199 ± 0.012
GTAGGAAA	-0.0734 ± 0.057
GCTCCGTA	-0.0737 ± 0.0022
ATATATAC	-0.13 ± 0.0098
CATTCAAA	-0.166 ± 0.02
AGCTCCCG	-0.0988 ± 0.01
ATGCAACA	0.0173 ± 0.0024
CACAGTCG	0.225 ± 0.0023
